The source gives no read counts; variants with many changes may rest on few reads.
B1: CPEB3 Ribozyme (parent)
chain: UAACAGGGGGCCACAGCAGAAGCGUUCACGUCGCAGCCCCUGUCAGAUUCUGGUGAAUCUGCGAAUUCUGCUGUAUAUCUC

Variants of: B1
Assay: self-cleavage, relative activity (ratio to wild type); higher = more cleavage; in vitro, sequencing
Outline: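 For each CPEB3 ribozyme variant, relative activity is its cleaved/total read fraction divided by the unmutated ribozyme's. Barcoded error-prone PCR libraries were transcribed by T7 RNA polymerase (5 hours, 37°C) and held in DNase I for 15 min before an EDTA stop, with cleavage occurring throughout. Template-switching reverse transcription and Illumina sequencing were used to read the RNAs. A 5-read minimum applied, and results are the mean of three batches.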

Variant | self-cleavage
UAACGGGGGGCCACAGCAGAAGCGUUCACGUCGCAGCCCCUGACAGAUUCUGGUGAAUCUGCGAAUUCUGCUGUACAUCUC | 0.74
UAACUGGGGGCCGCAGCAGAAGCGUUCACGUCGCAGCCCCUGACAGAUUCUGGUGAAUCUGCGAACUCUGCUGUAUAUCUC | 0.41
UAACGGGGGGCCACAGCAGAAGCGUUCACGUCGCAGCCCCUGUCAGACUCAGGUGAAUCUGCGAAUUCUGCUGAAUAUCUC | 0.46
UAACGGGGGGCCACAGCAGAAGCGUUCACGUCGCAGCCCCAGUCCGAUUCUGGUGAAUCUGCGAACUCUGCUGUAUAUCUC | 0.2
UAACGGGGGGCCACAGCAGAAGCGUUCACGUCGCAGCCCCCGUCAGAUUCCGGUGAAUCUGCGAAUUCUGCUGUAUAUCUC | 0.53
UAACUGGGGGCCUCAGCAGUAGCGUUCACGUCGCAGCCCCUGUCUGAUUCUGGUGAAUCUGCGAGUUCUGCUGUAUACCUC | 0.09
UAACGGGGGGCCACAGCAGAAGCGUUCACGUCGCAGCCCCUGCCAGAUUCAGGUGGAUCUGCGAAUUCUGCUGUAUAUCUC | 0.33
UAACGGGGGGCCACAGCAGAAGCGUUCACGACGCAGCCCCUGUCAGUUUCUGGUGAAUCUGCGAAUUCUGCUGUAUAUCUC | 0.26
UAACGGGGGGCCACAGCAGAAGCGUUCACGUCGCAGCCCCUGCCAGAUUCUGGCGAUUCUGCGAAUCCUGCUGUAUAUCUC | 0.11
UAACGGGGGGCCACAGCAGAAGCGUUCACGUCGCAGCCCCAGUCAGAUUCUGGUGAAUCUGCGAAUCCUGCUGUAUAUCUC | 0.31
UAACGGGGGGCCACAGCAGAAGCGUUCACGUCGCAGCCCCAGUCAGAUUCUGGUGAAUCUGCGAAUUCUGCCGUAUAUCUC | 0.35
UAACGGGGGGCCACAGCAGAAGCGUCCACGACGCAGCCCCUGUCAGAUUCCGGUGAAUCUGCGAACUCUGCUGUAUUUCUC | 0.17
UAACGGGGGGCCACAGCAGAAGCGUUCACGUCGCAGCCCCUGUCAGAUUCUGGAGAAUCUGCGAAUCCUGCCGCAUAUCUC | 0.16
UAACGGGGGGCCACAGCAGAAGCGUCCACGUCGCAGCCCCUGUCAGAUUCUGCUGAAUCUGCGAAUUCUGCCAUAUAUCUC | 0.2
UAACGGGGGGCCACAGCAGAAGCGUUCACGUCGCAGCCCCUGGCAGAUUCUGGUGAAUCAGCGAACUCUGCUGUAUAUCUC | 0.49
UAACGGGGGGCCACAGCAGAAGCGUUCACGCCGCAGCCCCCGUCAGAUUCUGGUGAAUCUGCGAAUUCAGCCGUAUAUCUC | 0.1
UAACGGGGGGCCACAGCAGAAGCGUUCACGACGCAGCCCCUGUCAGAUUCCGGUGAAUCUGCGGAUACUGCCGUAUAUCUC | 0.06

Variant | self-cleavage
UAACGGGGGGCCACAGCAGAAGCGUUCACGCCGCAGCCCCUGUCAGAUUCUGGUGAAUCUGCGAAUUCUGCCGUAUAUCUC | 0.37
UAACGGGGGGCCACAGCAGAAGCGUUCACGCCGCAGCCCCUGUCAGAUUCUGGUGAAUCUGCGAAUUCUGCAGUAUAUCUC | 0.36
UAACGGGGGGCCACAGCAGAAGCGUUCACGUCGCAGCCCCUGUCAGACUCUGGUGAGUCUGCGAAUUCUGCUGAAUAUCUC | 1.35
UAACGGGGGGCCACAGCAGAAGCGUCCACGUCGCAGCCCCUGUCAGAUUCUGGUGAAUCAGCGAAUUCCGCUGUAUAUCCC | 0
UAACGGGGGGCCACAGCAGAAGCGUUCACGUCGCAGCCCCCGUCAGAUUCUGGUGAAUCUGCUAAUUCUGCUGUAUAUCUC | 0.37
UAACGGGGGGCCACAGCAGAAGCGUUCACGCCGCAGCCCCUGUCAGAAUCUGGGGAAUCUGCGAAUUCUGCUGUAUAUCUC | 0.63
UAACGGGGGGCCACAGCAGAAGCGUUCACGUCGCAGCCCCUGUCAGAUUCUGGAGAAUCUGCGAAUUCUGCUGUUUAUCUC | 0.6
UAACGGGGGGCCACAGCAGAAGCGUUCACGACGCAGCCCCAGUCAGAUUCUGGUGAAUCUGCGAAUUCUGCUGUAUAUCAC | 0.13
UAACGGGGGGCCACAGCAGAAGCGUUCACGUCGCAGCCCCUGUCAGAUUCUGGUGAAUCAGCGAAUUCUCCUGUAUAUCUC | 0.31
UAACGGGGGGCCACAGCAGAAGCGUUCACGUCGCAGCCCCUGGCAGAUUCUGGUGAAUCUGCGAAUUCUGCAGUAUAUCUC | 0.33
UAACGGGGGGCCACAGCAGAAGCGUCCACGUCGCAGCCCCCGUCAGAUUCUGGUGAAUCUGCGAAUUCUGCUGUAUAUCUC | 0.13
UAACGGGGGGCCACAGCAGAAGCGUUCACGUCGCAGCCCCUGUCAGAUUCUGGUGAAUCUGCGAAAUCUGCUGUAUACCUC | 0.54
UAACGGGGGGCCACAGCAGAAGCGUCCACGUCGCAGCCCCUGUCAGAUUCCGGUGGAUCUGCGAAUUCUGCUGUAUAUCUC | 0.14
UAACUGGGGGCCGCAGCAGAAGCGUUCACGUCGCAGCCCCUGUCAGAUUCUGGUGAAUCUGCGUAUUCGGCUGUAUAUCUC | 0.27
UAACGGGGGGCCACAGCAGAAGCGUUCACGUCGCAGCCCCCGUCAGAUUCUGGUGAAUCUGCGAAUUCUGCUGCAUAUCUC | 0.46
UAACGGGGGGCCACAGCAGAAGCGUUCACGUCGCAGCCCCUGUCAGACUCUGGUGGAUCUGCGAAUUCUGCUGUAGAUCUC | 0.39
UAACGGGGGGCCACAGCAGAAGCGUCCACGUCGCAGCCCCUGUCAGAUCCUGGUGAAUCUGCGAAUUCUGCUGUAUAUCUC | 0.07
